# Among all 46,000 compounds or so, about 60 (0.1%) were called active. Inconclusive results (about 3%) are left out. Calls come from the whole dose curve; as a rule, active = well fitted inhibition curve with a large enough effect; inconclusive = small, poorly fitted or top-dose-only effect; inactive = no such curve, though single readings can be large or run the other way. The list shows a part of the results.
# Assay: Primary qHTS assay for Inhibitors of ovarian cancer metastasis using an organotypic tumor microenvironment (TME) model. Note: nearly all actives have a fitted effect of over 65% in size.
# Conditions: SKOV3ip1-GFP adhesion/invasion on 3D omental model, fluorescence; series mostly up to 45.8 µM; activity change, negative = inhibition: at the top concentration
# Description: PI: Ernst Lengyel MD., Ph.D. Department of Obstetrics and Gynecology, Section of Gynecologic Oncology University of Chicago Medicine, Chicago, Illinois. The tumor microenvironment (TME) is a key determinant of metastatic efficiency. We performed a quantitative high-throughput screen (qHTS) of diverse medicinal chemistry tractable scaffolds (44,420 compounds) and pharmacologically active small molecules (386 compounds) using a layered organotypic, robust assay representing the ovarian cancer metastatic TME. This 3D model contains primary human mesothelial cells, fibroblasts, and extracellular matrix, to which fluorescently labeled ovarian cancer cells are added. Initially, 100 compounds inhibiting ovarian cancer adhesion/invasion to the 3D model in a dose-dependent manner were identified. Of those, eight compounds were confirmed active in five high-grade serous ovarian cancer cell lines and were further validated in secondary in vitro and in vivo biological assays. […] Specifically, NCGC00117362 and PP-121 inhibited ovarian cancer adhesion, invasion, and proliferation, whereas milciclib inhibited ovarian cancer invasion and proliferation. […] To evaluate the clinical potential of NCGC00117362, structure - activity relationship studies were performed. […] The three compounds identified have promise as therapeutics for prevention and treatment of ovarian cancer metastasis.
# PROTOCOL TABLE (as described by Inglese J, Shamu CE and Guy RK. 2007) SEQUENCE No. (e.g., 1, 2, 3, etc.); […] (e.g., Cells, Incubation, Reagent, etc.); VALUE; DESCRIPTION. 1; Cells; 4 uL; primary human omental fibroblast, black, clear bottom, low base, 1536-well Aurora assay plate. 2; Incubation; 48 hr; 37C. 3; Cells; 3 uL; 1,200 SKOV3ip1-GFP cells. 4; Compounds; 23nL; acoustic dispenser. 5; Incubation; 2 hr; room temperature. 6; Incubation; 16 hr; 37C. 7; Wash; 5 uL; 1x PBS. 8; Fixing; 5 uL; 4% paraformaldehyde (PFA). 9; Incubation; 15 min; room temperature 10; Wash, 5 uL; 1x PBS. 11; Detection; Fluorescence, excitation filter 488 nm, emission filter 509 nm. NOTES (numbers refer to Sequence numbers above) 1. For the 1,536-well format, 40 primary human omental fibroblasts and 400 mesothelial cells were seeded with 0.02 µg fibronectin and 0.02 µg collagen type I in 4 µL of growth media (2.3 mm2; Supplementary Fig. S1A). 2. Assay plates were incubated for 48 hours at 37 C. 3. After incubation, 1,200 SKOV3ip1-GFP were seeded in 3 µL of serum-free media (growth media minus FBS) on top of primary human omental cells. 4. Compounds or controls were added to each well immediately after the addition of the cancer cells. Compounds were screened in four doses (0.36-46 µmol/L), and the plates contained the positive control (Tomatine) in eight doses (0.035-75 µmol/L) and DMSO (equal volume controls) 5 - 6. The plates were incubated at room temperature for 2 hours and then at 37 degrees C for 16 hours. 7 - 10. Following incubation, the media were aspirated and each well washed with PBS (5 µL) and then fixed with 4% paraformaldehyde (PFA; 5 µL). After 15 minutes, the PFA solution was aspirated, PBS (5 µL) was added. 11. The number of GFP-labeled cells analyzed using a fluorescent cytometer TTP LabTech Acumen eX3 using 488 nm excitation filter and 509 nm emission filter. Data was normalized to the DMSO treated for negative and Tomatine treated wells for positive control. REFERENCES: Inglese J, Shamu CE and Guy RK, Reporting data from high throughput screening of small molecule libraries, Nature Chemical Biology, 2007, 3(8): 438-441. doi.org/10.1038/nchembio0807-438. Yasgar A, Shinn P, Jadhav A, Auld DS, Michael S, Zheng W, Austin CP, Inglese J and Simeonov A, Compound Management for Quantitative High-Throughput Screening. J. Assoc. Lab. Auto., 2008, 13: 79-89. doi: 10.1016/j.jala.2007.12.004.
Compound,outcome,"activity change, negative = inhibition"
COC(=O)c1ccccc1NC(=O)c1cccn(Cc2cccc(Cl)c2)c1=O,inactive,–
Clc1ccccc1C(c1ccccc1)(c1ccccc1)n1cccn1,–,inactive: 2.31%
O=C1CC(c2ccc(C(F)(F)F)cc2)c2c(c3ccccc3oc2=O)O1 (stereo not given),–,inactive: 6.17%
Cc1cccc(Cn2cccc(C(=O)Nc3nnc(C)s3)c2=O)c1,–,inactive: -0.432%
Cc1cc(SCc2sc(-c3ccc(C(F)(F)F)c(F)c3)nc2C)ccc1OCC(=O)O,–,inactive: 5.73%
O=C(Nc1ccc2c(c1)OCCO2)c1cccn(Cc2ccccc2)c1=O,–,inactive: -12.8%
Nc1c(C(=O)Nc2ccc(F)c(Cl)c2)sc2nc3c(cc12)N1CCC3CC1,–,inactive: -13%
O=C(Oc1ccc([N+](=O)[O-])cc1)N1CCC(C(O)(c2ccc3c(c2)OCO3)c2ccc3c(c2)OCO3)CC1,–,inactive: -0.897%
CN1C(=O)COc2c(C(=O)NC3CN4CCC3CC4)cc(Cl)cc21 (stereo not given),–,inactive: 0.548%
O=C(Nc1ccc(F)c(Cl)c1)N(Cc1ccc2c(c1)OCO2)C1CCN(Cc2ccccc2)CC1,–,inactive: -16.1%
CCOc1ccc2nc(NC(=O)c3cccn(Cc4ccc(C)cc4)c3=O)sc2c1,–,inactive: -1.15%
O=C(Nc1ccccc1)N(Cc1ccc2c(c1)OCO2)C1CCN(Cc2ccccc2)CC1,–,inactive: -7.76%
O=C(Nc1ccon1)c1cccn(Cc2cccc([N+](=O)[O-])c2)c1=O,–,inactive: -2.12%
O=C(Nc1ccc2c(c1)OCO2)c1cccn(Cc2ccccc2)c1=O,–,inactive: 1.59%
O=C1CCC[C@@H]2[C@H]3CCCN4CCC[C@@H](CN12)[C@@H]34,–,inactive: -3.45%
Cc1ccc(OCC(=O)Nc2ccc(Cl)cc2C(=O)c2ccccc2)c(Br)c1,–,inactive: 5.57%
COc1ccc(C(=O)c2c(C)n(CCN3CCOCC3)c3cc(I)ccc23)cc1,–,inactive: 21.4%
O=P1(NCCCl)OCCCN1CCCl (stereo not given),–,inactive: -14.6%
CCc1ccc(-n2nc(C)c3c2NC(=O)CSC3c2ccccc2C)cc1 (stereo not given),inactive,–
COc1ccc(NC(=O)CN2C(=O)C(C)N=C(c3ccccc3)c3ccccc32)cc1OC (stereo not given),–,inactive: 6.99%
Cc1ccc(Cn2cccc(C(=O)Nc3nc4ccc(C)cc4s3)c2=O)cc1,–,inactive: -1.39%
Cc1ccc(NC(=O)CN2C(=O)CN=C(c3ccccc3)c3ccccc32)cc1Cl,inactive,–

Compound,outcome,"activity change, negative = inhibition"
CC(=O)c1cccc(NC(=O)c2cccn(Cc3cccc(C)c3)c2=O)c1,inactive,–
CCSc1nnc(NC(=O)c2cccn(Cc3ccccc3Cl)c2=O)s1,–,inactive: 27.4%
O=S(=O)(F)Cc1ccccc1,–,inactive: -2.68%
CCOc1ccccc1NC(=O)c1cccn(Cc2ccccc2C)c1=O,inactive,–
N#Cc1cc2c(nc1SCC(=O)Nc1cccc(C(F)(F)F)c1)C1CCN2CC1,inactive,–
COc1ccc(C(c2c(O)c3ccccc3oc2=O)c2c(C)n(C)n(-c3ccccc3)c2=O)cc1 (stereo not given),–,inactive: 3.07%
Cc1cccc(OCC(=O)N2CCN(Cc3cc(=O)n4nc(-c5ccccc5Cl)sc4n3)CC2)c1,–,inactive: 11.2%
Cc1ccc(-n2c(/C=C\c3ccc(F)c(F)c3)nc3ccccc3c2=O)c(C)c1,–,inactive: -0.841%
Cc1ccccc1-c1nn2c(=O)cc(CN3CCN(C(=O)COc4ccccc4Cl)CC3)nc2s1,–,inactive: -5.85%
O=C(COc1ccc(Br)cc1)Nc1ccc(Cl)cc1C(=O)c1ccccc1,–,inactive: 7.11%
Cc1cc(C)cc(NC(=O)CN2C(=O)CN=C(c3ccccc3)c3cc(Cl)ccc32)c1,inactive,–
COc1ccc2c(c1)CN(C)CC2c1ccc(Cl)c(Cl)c1 (stereo not given),–,inactive: -5.44%
CC(C)C[C@H](CN)CC(=O)O,–,inactive: 0.0992%
C1=C2CCCN[C@H]2[C@@H]2C[C@H]1[C@@H]1CCCCN1C2,–,inactive: -22.8%
Cc1ccc(OCC(=O)N2CCN(Cc3ccc(F)cc3)CC2)cc1,–,inactive: -2.29%
Cc1ccc(C(C)(C)C)c(OCC(=O)Nc2ccc(Cl)cc2C(=O)c2ccccc2)c1,–,inactive: 9.71%
COc1ccc2c(c1)[C@]13CCCCC1C(C2)N(C)CC3 (stereo not given in full),–,inactive: -6.03%
COc1cccc(-n2c(/C=C\c3ccc(Cl)cc3)nc3ccccc3c2=O)c1,inactive,–
c1cnc2c(c1)ncn2C1CCNCC1,–,inactive: 0.329%
CCC12CN3CC(CC)(CN(C1)C3c1c(C)[nH]c(=O)[nH]c1=O)C2=O (stereo not given),–,inactive: 1.06%
COc1cc(OC)cc(C(=O)Nc2ccc(Cl)cc2C(=O)c2ccccc2Cl)c1,–,inactive: 3.13%
O=c1c2ccccc2nc(/C=C/c2cccc3ccccc23)n1-c1ccc(Cl)cc1,–,inactive: 48.8%

Compound,outcome,"activity change, negative = inhibition"
CC(=O)OCC1=C(C(=O)O)N2C(=O)[C@@H](N)[C@@H]2SC1,–,inactive: 0.22%
Cc1ccc2nc(NC(=O)c3cccn(Cc4ccccc4F)c3=O)sc2c1,inactive,–
Cc1ccc2c(=O)n(-c3cccc(Cl)c3)c(=O)[nH]c2c1,–,inactive: -8.5%
O=C(Nc1ccc(Br)cc1C(=O)c1ccccc1Cl)c1ccc(Br)cc1,–,inactive: -3.12%
Cc1ccccc1-c1nc(CN2C(=O)CN=C(c3ccccc3)c3ccccc32)c(C)o1,–,inactive: 1.3%
CN(C)NC(=O)CCC(=O)O,–,inactive: -0.334%
COc1ccccc1-c1nn2c(=O)cc(CN3CCN(C(=O)COc4ccccc4Cl)CC3)nc2s1,–,inactive: 1.02%
CCc1ccc(-n2nc(C)c3c2NC(=O)CSC3c2ccc(C(=O)OC)cc2)cc1 (stereo not given),–,inactive: 4.05%
CCN(CC)C(=O)c1ccc(NC(=O)COc2ccc(-c3nn(C)c(=O)c4ccccc34)cc2)cc1,inactive,–
COc1cc2[nH]c(=O)n(-c3ccc(C)cc3)c(=O)c2cc1OC,inactive,–
Cc1ccc(-c2nn3c(=O)cc(CN4CCN(C(=O)COc5ccc(C)c(C)c5)CC4)nc3s2)cc1,–,inactive: 4.46%
COc1ccc(Br)cc1C1SCC(=O)Nc2c1c(C)nn2-c1ccccc1C (stereo not given),–,inactive: 2.54%
CCCC1=Nc2cc(C(=O)NCCCN(CC)CC)ccc2Sc2ccccc21,–,inactive: 13.7%
COC(=O)[C@@H](N)CCCN=C(N)N[N+](=O)[O-],–,inactive: 9.36%
CCCC12CN3CC(C)(CN(C1)C3c1c(C)[nH]c(=O)[nH]c1=O)C2=O (stereo not given),–,inactive: -16.7%
COc1cccc(NC(=O)c2cccn(Cc3ccccc3C)c2=O)c1,–,inactive: -17%
COc1ccccc1C1SCC(=O)Nc2c1c(C)nn2-c1cccc(C)c1 (stereo not given),–,inactive: 2.23%
Cc1ccc(Cn2cccc(C(=O)Nc3ccc4c(c3)OCCO4)c2=O)cc1,–,inactive: -6.56%
Cc1ccc(-c2nc(CN3C(=O)CN=C(c4ccccc4)c4ccccc43)c(C)o2)cc1,–,inactive: -1.48%
CCN(CC)C(=O)c1ccc(NC(=O)c2ccc(-c3nn(C)c(=O)c4ccccc34)cc2)cc1,–,inactive: 20.5%
Cc1ccccc1-n1nc(C)c2c1NC(=O)CSC2c1ccc(Cl)cc1 (stereo not given),–,inactive: -0.637%
